In PubChem BioAssay AID1508624 (National Center for Advancing Translational Sciences (NCATS), 2021):
The whole screen tested about 48,000 compounds, of which about 120 (0.25%) were called active. Inconclusive results (about 4%) are left out. The call rests on the fitted dose curve; in most records, active means well fitted activation curve with a large enough effect; inconclusive means small, poorly fitted or top-dose-only effect, or another doubt; inactive means no such curve, though single readings can be large or run the other way. The list shows a part of the results.

Test: Primary qHTS for Identification of Small Molecule Activators of Huntingtin-Antisense Promoter Activity; further: nearly all actives have a fitted effect of over 55% in size
Settings: HEK293 HTT-AS promoter firefly luciferase reporter, 24 h; series mostly up to 57.5 µM; activity change, positive = activation: at the top concentration
Outline: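 HEK293 cells carrying firefly luciferase reporters were seeded at 2,500 per well in Opti-MEM and cultured for 24 h. They were then treated with compounds at up to 57.5 uM final for 24 h at 37 degrees C before Dual-Glo luminescence readout.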

SMILES | activity change, positive = activation
CCN(CC)S(=O)(=O)c1ccc2c(c1)N(CC(=O)NCC(C)c1ccccc1)C(=O)CO2 (stereo not given) | inactive: -9.33%
CCn1cc(C(=O)N2CCN(c3ccccc3OC)CC2)c(=O)c2cc(S(=O)(=O)N3CCC(C)CC3)ccc21 | inactive: -9.92%
Cc1ccc(-n2ncc3c(N4CCCCCC4)ncnc32)cc1C | inactive: -84.6%
CC1=C(c2ccc(C)c(C)c2)S(=O)(=O)N=C1N1CCC(C(=O)N2CCCCC2)CC1 | inactive: -19.9%
CCOc1ccc(CNC(=O)CCc2cn(CC)c3ccccc23)cc1 | inactive: -4.02%
CCCOc1ccccc1-c1nc2n[nH]nc2c(=O)[nH]1 | inactive: -21.4%
CCc1ccc(NC(=O)C2CCN(S(=O)(=O)c3c(C)noc3/C=C\c3ccc(OC)cc3)CC2)cc1 | inactive: -8.71%
COc1cc(C(=O)Nc2ccc(OCc3cc(=O)n4cccc(C)c4n3)cc2)cc(OC)c1OC | inactive: -3.07%
O=C(NCCc1ccccc1)c1ccc(CSc2nc3ccncc3n2Cc2cccc(F)c2)cc1 | inactive: -11.3%
CCN(CC)C(=O)c1sc2c(c1C)c(=O)n(CCc1ccccc1)c(=O)n2Cc1cccc(Cl)c1 | inactive: -28.3%
COc1ccccc1CNc1ccc(-c2nc(-c3cccc(C)c3)no2)cc1[N+](=O)[O-] | inactive: 1.85%
O=C(c1cnc(N2CCOCC2)c2ccccc12)N1CCN(c2ccccc2F)CC1 | inactive: -19.1%
CN(C)c1ccc(CNC(=O)c2ccc3c(c2)N(C)C(=O)C2CCCCN32)cc1 (stereo not given) | inactive: -4.91%
CCOc1ccccc1N1CC(c2nc3ccccc3n2CCCCOc2cc(C)ccc2C)CC1=O (stereo not given) | inactive: -14.8%
COc1ccc(-n2nc(C(=O)NCc3ccc(F)cc3)c3c4ccccc4n(C)c3c2=O)cc1 | inactive: -7.96%
COc1ccc(NC(=O)CN(C)S(=O)(=O)c2ccc3nc(C)sc3c2)cc1 | inactive: -3.77%
CC(C)CCNC(=O)c1cc(Sc2ccc(F)cc2F)nc2ccccc12 | inactive: -22.1%
COc1ccc(N2C(=O)CS(=O)(=O)C23C(=O)N(Cc2c(F)cccc2Cl)c2ccccc23)cc1 (stereo not given) | inactive: -23%
CCCCn1cc(S(=O)(=O)c2ccccc2)c(=O)c2cc(F)c(N3CCC(C)CC3)cc21 | inactive: -9.07%
CCOC(=O)c1cnc2c(C)cc(C)cc2c1Nc1ccc(OCc2ccccc2)cc1 | inactive: -6.87%
O=C(CN1CCN(CC(=O)Nc2ccccc2F)CC1)Nc1ccc(Cl)c(C(F)(F)F)c1 | inactive: -7.55%
CCOC(=O)C1=C(C(F)(F)F)Nc2ncnn2C1c1cccc(OC)c1OC (stereo not given) | inactive: 6.91% [at 11.5 µM, percent change from vehicle, -100% = no light]
CCOc1ccc(C(c2c(O)cc(C)n(CCOC)c2=O)N2CCN(c3ccc(F)cc3)CC2)cc1 (stereo not given) | inactive: 13.9%

SMILES | activity change, positive = activation
Cc1cccc2cc(-c3nc(-c4cccs4)no3)c(=O)oc12 | inactive: 18%
Cc1sc2ncn(CC(=O)N3CCN(c4cccc(Cl)c4)CC3)c(=O)c2c1S(=O)(=O)N1CCC(C)CC1 | inactive: 4.41%
O=C(Nc1ccccc1Br)N[C@@H]1CCN(c2ccc(C(F)(F)F)cn2)C1 | inactive: -7.53%
CCN(CC)C(=O)Cn1c(=O)n(CCCCCC(=O)NCc2ccc(C)cc2)c(=O)c2sccc21 | inactive: 1.64%
CCOc1ccc(-n2c(=O)c3c(C)c(C)sc3n(Cc3ccc(C(C)(C)C)cc3)c2=O)cc1 | inactive: -9.42%
CC(=O)N1CCc2c(sc3c2c(=O)n(-c2cc(Cl)ccc2C)c(=O)n3C)C1 | inactive: -29.1%
COC(=O)c1ccc(NC(=O)CN(C)S(=O)(=O)c2ccc3c(c2)CCCC(=O)N3)cc1 | inactive: -33.4%
CCCCNC(=O)Cn1nc(N2CCN(c3ccccc3OC)CC2)ccc1=O | inactive: -6.81%
CCn1cc(S(=O)(=O)c2cc(C)cc(C)c2)c(=O)c2cc(F)c(N3CCN(c4ccccc4)CC3)cc21 | inactive: 2.41%
COc1cccc(C(=O)N2CCc3cc(OC)c(OC)cc3C2COc2ccc3c(C)cc(=O)oc3c2)c1 (stereo not given) | inactive: 15.4%
CCCCCN=C(N)N/N=C/c1c[nH]c2ccc(OC)cc12 | inactive: -41.8%
N#C/C(=C/c1ccccc1Cl)c1nc(-c2cc3ccccc3oc2=O)cs1 | inactive: -13.4%
O=C(Cn1c(=O)n(CC2CCCO2)c(=O)c2ccccc21)Nc1ccc(F)cc1F (stereo not given) | inactive: -8.36%
COc1cc(C)ccc1OCCSc1nc2ccc(NC(=O)c3ccccc3F)cc2s1 | inactive: -4.96%
COC(=O)c1cc(NC(=O)Cn2nc(-c3ccccc3)c3c(c2=O)CCCC3)cc(C(=O)OC)c1 | inactive: -22.5%
CCc1ccc(-c2cc(C)no2)cc1S(=O)(=O)NCc1ccc(OC)cc1 | inactive: -39.1%
Cc1ccc(NS(=O)(=O)c2ccc3[nH]c4c(c3c2)CCCCCC4)cc1C | inactive: -33.4%
CCOc1ccccc1CNC(=O)CCCn1c(=O)c2cccn2c2ccc(F)cc21 | inactive: -35%
Cc1ccc2nc(N)[nH]c(=O)c2c1Sc1ccncc1 | inactive: -24.5%
CCOc1ccc(S(=O)(=O)Nc2ccc3c(c2)CCCN3S(=O)(=O)c2ccc(C)cc2)cc1 | inactive: -18.9%
Cc1ccc(CNC(=O)c2cc(NS(=O)(=O)c3ccc(C)cc3)ccn2)cc1 | inactive: -10.5%
CCOC(=O)c1cc(S(=O)(=O)N(C)c2ccccc2)[nH]n1 | inactive: -20.4%
Cn1c(C(=O)NCc2ccccc2F)cc2cc(S(=O)(=O)N3CCCCC3)ccc21 | inactive: -35.7%

SMILES | activity change, positive = activation
COc1ccc(NC(=O)CN(C)S(=O)(=O)c2ccc3nc(C)sc3c2)cc1Cl | inactive: -30.5%
COC(=O)c1sc2cccc(F)c2c1S(=O)(=O)NCc1ccccc1Cl | inactive: -6.41%
Cc1cccc(Nc2nnc(-c3ccc(C)c(S(=O)(=O)N4CCOCC4)c3)c3ccccc23)c1 | inactive: 1.08% [at 11.5 µM, percent change from vehicle, -100% = no light]
CCCOc1ccc(C(=O)Nc2ccc(NC(=O)c3ccc(Br)cc3)cc2)cc1 | inactive: -2.33%
COc1ccc(CCNCc2c(C(=O)O)c(C)n(Cc3cccc(C)c3)c2C)cc1OC | inactive: -15.1%
Cn1c(Oc2cccc(Cl)c2)nc2c1c(=O)n(Cc1ccccc1Cl)c(=O)n2C | inactive: -0.786%
COc1ccc(OCC(=O)N2CCN(C(=O)c3cccc(OC)c3OC)CC2)cc1 | inactive: 2.1%
CCCCN(C(=O)CCn1c(=O)oc2ccccc21)c1ccccc1 | inactive: -13.8%
Cc1cccc(C=NNc2cc(N3CCOCC3)nc(OCCc3ccccn3)n2)c1 | inactive: -28.1%
CCOc1ccc(-c2cc(CCCC(=O)NCCc3ccc(SC)cc3)no2)cc1 | inactive: -79%
COCCn1c(C)cc(O)c(C(c2ccccc2Cl)N2CCN(c3ccccc3)CC2)c1=O (stereo not given) | inactive: -5.05%
O=C(NCC(c1ccco1)S(=O)(=O)c1cccs1)c1c(F)cccc1F (stereo not given) | inactive: 13%
CCN(CC)C(=O)c1sc2c(c1C)c(=O)n(Cc1ccccc1)c(=O)n2Cc1c(C)cc(C)cc1C | inactive: -31.6%
Cc1cccc(NC(=O)Cn2c(=O)n(CC3CCC(C(=O)NCCc4ccccc4)CC3)c(=O)c3ccccc32)c1C (stereo not given) | inactive: -9.28%
CC(C)(C)OC(=O)CN(Cc1ccc(Cl)cc1)Cc1ccc([N+](=O)[O-])s1 | inactive: -14.1%
Cc1ccc2[nH]c(C)c(CCNC(=O)c3cc4cc(Br)ccc4oc3=O)c2c1 | inactive: -16%
O=C(NCC(c1cccnc1)N1CCc2ccccc21)c1cccc(F)c1 (stereo not given) | inactive: -22.8%
CCOC(=O)c1ccc(NC(=O)c2c(NCc3ccc(OC)c(OC)c3OC)sc3c2CCC(C)C3)cc1 (stereo not given) | inactive: -15.5%
O=C(CN1C(=O)c2ccccc2Sc2ncccc21)Nc1cccc(C(F)(F)F)c1 | inactive: -38.3%
COc1ccc(Nc2cc(C)c3cc(NC(=O)COc4cccc(C)c4)ccc3n2)cc1 | inactive: -40%
COc1cccc(CNC(=O)C2=C(C)C(=O)OC23CCCCCC3)c1 | inactive: -25.4%
COc1ccc2nc(NC(=O)c3nc(S(=O)(=O)Cc4ccc(C)cc4)ncc3Cl)sc2c1 | inactive: -35.9%
Cc1cccc(N2CCN(C(=O)CCNS(=O)(=O)c3ccc4c(c3)CCN4C(=O)C3CC3)CC2)c1C | inactive: -40.8%

SMILES | activity change, positive = activation
CCOc1ccccc1NC(=O)CN(c1cc(C)cc(C)c1)S(=O)(=O)c1c(C)nn(C)c1C | inactive: -25.4%
Cc1cc(C)c(Cn2cnc3nc4c(cc3c2=O)CCCC4)c(C)c1 | inactive: -24%
CCOc1ccc(C(=O)NCC(c2ccc3c(c2)OCO3)N2CCN(C)CC2)cc1 (stereo not given) | inactive: -8.03%
CCOc1ccc(NC(=O)N2CCC(n3c(C)nc4cccnc43)CC2)cc1 | inactive: 6.45%
CO[C@H]1O[C@@H]2O[C@@]3(C)CC[C@@H]4[C@@H](C)CC[C@@H]([C@H]1C)[C@@]24OO3 | inactive: -13.6%
Cc1ccc(-c2nnc(Nc3ccc(O)cc3)c3ccccc23)cc1S(=O)(=O)NC(C)(C)CO | inactive: -45.2%
CCOc1ccc(S(=O)(=O)N(CC(=O)Nc2ccc(OC)c(Cl)c2)c2ccccc2)cc1 | inactive: -13.1%
Cc1nn2c(C)c(C(=O)NCc3cccc(Br)c3)cnc2c1-c1ccccc1 | inactive: 9.57%
Cc1cc(C)cc(NC(=O)C2CCN(c3nnc(-n4c(C)ccc4C)s3)CC2)c1 | inactive: -9.29%
CCOC(=O)c1scc(-c2ccc(C)cc2)c1S(=O)(=O)N1CCN(c2ccccc2)CC1 | inactive: -15.5%
CCc1cccc(NC(=O)CN(C)S(=O)(=O)c2ccc3c(c2)n(C)c(=O)c(=O)n3C)c1 | inactive: -3.05%
CCOc1cc(C(=O)Nc2ccc3nc(N4CCN(C)CC4)cc(C)c3c2)cc(OCC)c1OCC | inactive: -21.7%
COc1ccc(-c2noc(COc3ccc(C)cc3C)n2)cc1OC | inactive: 0%
COc1ccc(-n2c(SCC(=O)Nc3ccc4c(c3)OCO4)nc3c([nH]c4ccccc43)c2=O)cc1 | inactive: -26.3%
COc1ccc(S(=O)(=O)N(CC(=O)Nc2ccc(C)cc2)c2ccc(C)cc2)cc1OC | inactive: -0.593%
Cc1oc2ncnc(N3CCCCC3)c2c1C(=O)N1CCN(c2ccc(Cl)cc2)CC1 | inactive: 1.11%
COc1ccccc1C(=O)Nc1ccc(S(=O)(=O)Nc2nc(C)cc(C)n2)cc1 | inactive: -15.9%
COc1ccc(S(=O)(=O)N(CC(=O)NCCc2ccccc2)c2ccc(Cl)cc2)cc1 | inactive: -22.4%
CCOC(=O)c1ccccc1NC(=O)CSc1cn(CC(=O)N2CCCCCC2)c2ccccc12 | inactive: -36.9%
COc1ccc(NC(=O)c2ccco2)cc1NC(=O)c1cc(Br)ccc1Cl | inactive: -24.7%
CCOc1ccc(C(=O)c2oc3ccccc3c2NC(=O)c2cc(=O)c3ccc(C)cc3o2)cc1 | inactive: -9.21%
